In PubChem BioAssay (NCI) one finds growth data, which are given here for 1 compound.

The test deals with RPMI-8226 leukemia. In words: NCI-60 one-dose screen, 48 h (100 = growth as untreated, 0 = no growth, -100 = all killed).

The source holds several records for some structures; these can differ, active in one and inactive in another.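 Percent growth is the endpoint: 0 to 100 indicates growth inhibition (40 means 60% inhibition), 0 means no net growth, and negative values indicate cell death.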 Not every entry of the source has a single result; some have several. Only these are listed. Rule for the calls: active = growth percent below 10; inactive = the rest. There may be further records. This drug was run again and again over the years, at the concentration stated with the values; one value stands for one run. Brackets with × give the number of equal values in this list.

On to `COc1cccc2c1C(=O)c1c(O)c3c(c(O)c1C2=O)C[C@@](O)(C(=O)CO)C[C@@H]3OC1CC(N)C(O)C(C)O1` (stereo not given in full), for which the growth entry (0.25 µM, runs of 2009) is “active: 8.14, 3.09, 8.89, -4.96, -2.68% and inactive: 30.6, 28.2, 47.7, 80.9, 26.8, 35.3, 46.6, 21.6 (2×), 67.2, 59.5, 46.9, 44.6 (2×), 35.5, 33.8, 58.5, 59.9, 38.9, 35.2, 26.7, 33.9, 29.4 (2×), 32.9, 41.7, 54, 37.8, 31.9, 29.9 (2×), 31.3 (2×), 46.8, 53.9, 54.7, 36.4, 39.1, 33, 37.1 (2×), 27.5, 63.1, 65.4, 36, 20.9 (2×), 15.7, 24.6, 40.4, 53.3, 19.8, 28.9, 36.1, 65.7, 45.3, 40.9, 52.3, 48.7, 40.8, 38.1%”; the growth result (0.25 µM, runs of 2010) was “inactive: 34.6, 47.4, 50.1, 47.6, 34.3, 53.9, 47.2, 38.4, 44.5, 45.5, 29.8 (2×), 41.1, 53.6, 57.4, 30.8, 40.4, 44.8, 28.1, 29.9, 52.8, 31.4, 29.4, 45.3, 26.9, 39.1, 45.2, 55.7, 14.2, 24.2, 50.8, 37, 28.9, 50.9, 35.7, 37.7, 37.1, 49.1, 37.3, 59.9, 45.4, 43.8 (2×), 58.8, 66.7, 57, 42.3, 48.2, 40% and active: -5.36%, -1.28%, 5.61%”; the growth result (0.25 µM, runs of 2011) is “inactive: 31.8, 24, 31.9 (2×), 34.2, 21.5, 49.2, 55.1, 48.9, 12.2, 64.4, 43.5, 44.1 (2×), 54.3, 54.1, 102, 63.2, 69.6, 57.6, 65.3, 35.5, 50.3, 62, 66, 44.3, 45.3, 52.7, 65.1, 45.5 (2×), 40.3, 38.5, 69.7, 41.4, 50.7, 30.4, 33.6, 27.3, 64.6, 52.9 (2×), 55.3, 50.2, 44.6, 43.8, 50.5, 24.2, 38.2, 34.5, 47.6, 51.2, 45.7, 41.6, 39.7%”; the growth result (0.25 µM, runs of 2012) was “inactive: 43.8, 21.3 (2×), 49.9 (2×), 64.4, 54.4, 76.1, 30.4, 39.2, 70.9, 56.7, 33.9, 28.2, 27.6, 43.7, 21.9, 14.8, 14.5, 10.9, 24.1, 21.1, 15.2, 11.1, 23.6, 38, 34.9, 35.5, 38.1, 27.3, 25.8 (2×), 26.1, 29, 40.8, 41, 33.7, 34.6, 23.3, 31.3 (2×), 19.8, 33 (2×), 29.5, 77.6, 53.1, 42.5, 35.6 (2×), 30, 68.1, 48.5, 51.8, 39, 33.5, 27.9, 80.5, 44.1, 61.8, 62.8, 37, 28.3, 30.6, 19, 16.1, 33.1, 23.9, 23, 35.1% and active: 8.37%, 5.54%, 2.34%”; the growth result (0.25 µM, runs of 2013) was “inactive: 35.1, 23.1, 32.1, 38.8, 34.2, 14.5, 44.6, 36.1, 50.4, 58.9, 86.7, 58.3, 38.7, 55.4, 66.6, 40, 43.9, 49.2, 65.6, 41.1, 22.5, 32.7, 27.3 (2×), 21.1, 32.6, 24.9, 14.4, 10.4, 27.6, 60.1, 48.2 (2×), 42.2, 27.4, 33.8, 64.9, 29.2, 20.4, 86.4, 81.1, 46.1, 62.2, 57, 53.6, 34.9, 45.5, 39.3, 16.5, 22.7, 34.3, 46.5, 63.8, 33.9, 29.6, 45.6, 46.7, 26.7, 29.3, 33, 46.4, 49.6, 37.7, 29.5, 36.3, 29.4, 49.5, 35.7, 22.8, 24.6, 45.7, 31.4% and active: 7.44%, -11.5%”; the growth result (0.25 µM, runs of 2014) was “inactive: 35.4, 25.4 (2×), 34.7, 22.9, 25.9 (2×), 34.9, 30.8, 27.4, 20.5, 14.7, 31.9, 17.1, 38.7, 17.2, 46.2, 56.7, 40.3 (3×), 41.4 (3×), 25.2, 29.7, 35.9, 37.4, 27.5, 41.7, 33.1, 28.8, 34.1, 27.9, 29.6, 27.7, 24.9 (2×), 27.8, 29.5, 48 (3×), 42.3, 38.9, 25.6, 42.1, 39.4, 31.1, 52.5, 48.6, 49.2, 53.6, 53.3, 47.5, 50.4 (2×), 46.1, 46, 57.9, 53.5, 43.6, 39.1, 38.5, 43.1, 38.2, 49.5 (2×), 52.1, 51.3, 49, 48.5, 32.7, 48.8, 51.4, 49.8, 39.8, 30.5, 32.5% and active: -3.19%”. Further, the growth result by setting is: (0.25 µM, runs of 2015) “inactive: 53, 46.1, 39, 45.4, 44.5, 47.5, 43.7, 40.6 (2×), 38, 42.2, 46 (2×), 45.1, 24.8, 22.2, 21.4, 26.5, 25, 31.8, 30.6, 26.1, 29.4 (2×), 27.5, 13, 19.7, 43, 44.3, 32.2 (2×), 23.5 (2×), 31.1, 28.5 (2×), 14.3, 22.9 (2×), 57.5, 54.9, 59.7, 19.5, 33.5 (2×), 35.3, 46.5, 56.3, 39.8 (2×), 33.7, 36.1, 20, 22.7, 27.7, 50.9, 17.4, 19.9, 23.6, 26.8, 14.1, 33.3, 34.9, 32.8, 44.8, 62.9, 63.6, 41.1, 47.6, 37.7, 44.1, 30.9, 39.2, 31, 39.5, 52.7, 51, 48.2, 48.9% and active: 8.21%”; (0.25 µM, runs of 2016) “inactive: 34.9 (2×), 37, 32.4 (2×), 40.1 (2×), 48.5, 40.6, 31.8, 25.4, 36.2, 39.2, 28.3, 27.1, 43.7, 29, 27.5, 41.1, 48.2, 28, 43.9 (2×), 49.1, 32.7, 30.1, 45.3, 31.9, 29.6, 22.6, 34.1, 33.4, 26.8, 26.4, 10, 12.4, 23.2, 20.8, 17.3, 45.8, 50.7 (2×), 28.5, 49 (2×), 46.1, 29.7 (2×), 24.8, 46.2, 46.6, 52.8 (2×), 43.3, 56.3, 56.4, 30.9, 43.1 (2×), 52.7, 52.2, 42.5, 43.2, 61.6, 47.5, 55.9, 73, 68.8, 49.2, 54.6, 46.4, 46.8, 46, 44.5, 47.4, 37.8, 29.9, 37.4, 53.1, 42.2%”; (0.25 µM, runs of 2017) “inactive: 40.6, 37, 33.7, 31, 24.9, 19.9 (2×), 16.8, 20.9 (3×), 26.8 (2×), 33 (2×), 25.7, 16.9, 15, 29.4 (3×), 27.2 (2×), 28.3, 22.6 (2×), 23.2, 26.5 (2×), 27.1, 22.4, 19.5, 19.2, 22.2, 19.7, 27, 23.1, 27.9, 26.1, 34.3, 33.9 (2×), 26.9, 28.2, 19.6 (2×), 25.5, 25.4 (2×), 32.9, 30.7, 33.8, 13, 24.7 (2×), 26.2, 31.4, 16.2, 22.3, 15.6, 22, 30.1, 21.9 (2×), 23, 28.8, 19.3, 23.9, 20.8, 35.5, 33.6, 34.7 (2×), 31.3, 31.5, 36.4, 32.5, 31.1, 48.3, 36, 24.3, 13.7% and active: 1.21%”; (0.25 µM, runs of 2018) “inactive: 41.1 (2×), 43, 25.7, 26.4, 27.3, 34.8 (2×), 38.9, 32.1, 43.9, 38.3, 38.1, 48.7, 38.8, 29.9, 36.2, 17.1, 42.9, 29.2, 25, 19.1, 26.1, 43.2, 47.5, 53.8, 47.7, 62.6, 65.1, 43.8 (2×), 48.3, 52.8, 44.5, 54.5, 53.3, 59, 72.4, 68.1, 65.7, 61.7 (2×), 60.6, 63.3, 63.9, 36.4, 23, 12.5% and active: 6.24%”; (0.25 µM, runs of 2019) “inactive: 12.2, 30.1, 30, 28.3, 30.7, 38.9, 25.7, 20.2, 32.7, 39.9, 36.3, 45.6, 21.2, 24.8, 34.5, 26.3, 19, 33.9, 49.3, 48.6, 37.4, 42.1, 24.3, 17.4, 34.9, 29.4, 33.2, 23.4, 25, 26.2, 35.6 (2×), 34.7, 33.5, 52.5, 31.4, 26.4, 37.1, 43.2, 54.9, 32.5, 18, 21.6, 15.1% and active: 9.41%”; (0.25 µM, runs of 2020) “active: -0.901, -1.04, 4.78, -0.928, 8.41% and inactive: 28.3, 21.5, 18.7, 24.8, 26.8, 10.9, 11.2, 24, 14.3, 31, 31.4, 40.3, 21.1, 45.5, 41.3, 37.8, 18.9, 27.2, 13, 16.7%”. In addition, the growth entry reads like this: (0.25 µM, runs of 2021) “inactive: 17, 24.4, 22, 36, 33, 31.8, 28.9, 35.4 (2×), 26.7 (2×), 30, 19.2 (2×), 28.4 (2×), 21.7, 21.8, 39, 33.3, 30.1, 29.7, 22.7, 21, 32.3, 25, 26.2, 34.5, 27.8, 32.1, 19.5, 27.5, 39.8, 29.4, 26.5, 24.1, 25.3, 31, 33.6, 49.9, 42.1, 46.4, 54.6, 23.9, 25.5, 25.7, 16.7, 18, 27.3, 10.6, 12.3, 31.9, 22.9, 21.9%”; (0.25 µM, runs of 2022) “active: 2.28, 6.62, 7.08, 9.59% and inactive: 33.9 (2×), 43.1, 17.6, 18.2, 32.9, 31.1, 37.8, 41.3, 24.8, 16.7, 12.2, 50.8, 58, 19.7, 51.2, 43.6, 65.1, 10, 13.2, 27.4, 26.8, 24.6%”; (25 µM, runs of 1991) “active: -14.5, -23.8, -26, -5, -27.9, -34.3, -10.6, -12.3, -46.8, -32.7, -16.5, 3.93, -4.91, 8.26, -26.7, -9.5, -45.2%”.
